# Test results reported in PubChem BioAssay AID1768 (National Center for Advancing Translational Sciences (NCATS), 2009).
# Hit rate of the full screen: of about 270,000 compounds, about 620 (0.23%) were called active. The shares of active, inactive and inconclusive entries below differ from those in the screen. The call rests on the fitted dose curve; in most records, active means well fitted inhibition curve with a large enough effect in the polarisation, with a control signal flat (not every such curve was filed as active); inconclusive means small, poorly fitted or top-dose-only effect, or effect the other way, or a change in a side signal; inactive means no such curve, though single readings can be large or run the other way; the % refers to the polarisation. Potencies beside an inconclusive call are fits to weak or partial responses and may not hold up. A note “side channel” means that the fit belongs to a control or component signal, not to the main read-out.
# Target: Menin (Homo sapiens) (UniProt O00255)
# Assay: qHTS Assay for Inhibitors Targeting the Menin-MLL Interaction in MLL Related Leukemias: Competition With Texas Red Labeled MLL-derived Mutant Peptide
# Conditions: fluorescence polarization; series mostly up to 61.6 µM
# Potency means the concentration at half of the fitted maximal effect; tags describe the fitted curve by direction and shape or compound fluorescence and quenching.
# UniProt O00255, sequence (O00255 whole entry, looked up): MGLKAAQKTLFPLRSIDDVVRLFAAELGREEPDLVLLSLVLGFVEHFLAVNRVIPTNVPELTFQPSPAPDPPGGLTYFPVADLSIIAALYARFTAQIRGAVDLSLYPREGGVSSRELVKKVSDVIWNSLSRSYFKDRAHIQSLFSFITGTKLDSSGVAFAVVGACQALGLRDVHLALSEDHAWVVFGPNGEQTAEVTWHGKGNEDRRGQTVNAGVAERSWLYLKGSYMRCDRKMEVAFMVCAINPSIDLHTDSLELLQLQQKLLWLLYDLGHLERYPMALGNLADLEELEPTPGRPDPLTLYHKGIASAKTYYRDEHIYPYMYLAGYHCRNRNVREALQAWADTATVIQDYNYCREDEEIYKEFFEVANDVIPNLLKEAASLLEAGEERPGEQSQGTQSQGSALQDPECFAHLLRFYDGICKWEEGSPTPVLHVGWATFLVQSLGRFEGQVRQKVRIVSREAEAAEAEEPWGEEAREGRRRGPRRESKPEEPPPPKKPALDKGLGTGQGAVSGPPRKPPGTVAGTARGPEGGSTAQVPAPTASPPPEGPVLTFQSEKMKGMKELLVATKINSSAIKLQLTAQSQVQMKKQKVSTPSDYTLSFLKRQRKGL
row,Structure (SMILES),Potency
1,c1ccc(COc2ccc(Nc3ncnc4nc[nH]c34)cc2)cc1,"inconclusive: 12.6 µM [quencher, side channel, partial curve]"
2,N/C(=N\N=C\c1cccs1)SC1CC(=O)N(c2ccc(Br)cc2)C1=O (stereo unspecified),"inconclusive: 5.62 µM [inhibitor, full curve]"
3,NC(=O)CC(NC(=O)Cc1ccc(Br)cc1)c1ccc(N2CCCCCCC2)c([N+](=O)[O-])c1 (stereo unspecified),"inconclusive: 35.5 µM [inhibitor, single point]"
4,Cc1ccc(-c2csc3ncnc(N4CCN(Cc5ccccc5)CC4)c23)cc1,"inconclusive: 1.78 µM [inhibitor, full curve, poor fit]"
5,Cc1cccc(CSc2nc(N)c(C#N)c(-c3cccs3)c2C#N)c1,"inconclusive: 28.2 µM [inhibitor, single point]"
6,COc1ccc(OCC(=O)Nc2ccc(Cl)cc2)cc1,"inconclusive: 35.5 µM [fluorescent, side channel, single point]"
7,Cc1ccc(OCCNC(=O)c2ccccc2O)cc1,"inconclusive: 35.5 µM [quencher, side channel, single point]"
8,COc1ccc(C(=O)NCC2(c3ccc(OC)c(OC)c3)CCCC2)c(OC)c1,"inconclusive: 10 µM [inhibitor, partial curve]"
9,O=c1c2ccc(Cl)cc2nc2n1CC/C2=C\c1cccc(O)c1,"inconclusive: 39.8 µM [fluorescent, single point]"
10,Cc1cc(O)c(/C=N/Nc2ccccc2)c(=O)o1,"inconclusive: 39.8 µM [quencher, side channel, single point]"
11,O=C(Nc1ccc(F)cc1)c1ccccc1NS(=O)(=O)N1CCCC1,"inconclusive: 22.4 µM [quencher, side channel, partial curve]"
12,O=[N+]([O-])CC(c1ccc(F)cc1)c1c[nH]c2ccccc12 (stereo unspecified),"inconclusive: 39.8 µM [quencher, side channel, single point]"
13,CC(Cc1ccccc1)C(=O)Nc1ccc(Br)cc1 (stereo unspecified),"inconclusive: 15.8 µM [quencher, side channel, single point]"
14,COc1ccc(C2C(C(C)=O)=C(C)N=c3s/c(=C\c4cc(C)n(C)c4C)c(=O)n32)c(OC)c1 (stereo unspecified),"inconclusive: 14.1 µM [fluorescent, side channel, partial curve]"
15,COc1ccc(-n2c(C)cc(C(=O)NC3CCCCC3)c2C)cc1,"inconclusive: 3.16 µM [inhibitor, full curve]"
16,CCOc1ccc2c(c1)c(N=Nc1cccc(C(=O)O)c1)c(O)n2C,"inconclusive: 11.2 µM [quencher, side channel, partial curve]"
17,COC(=O)Cn1c(CN(Cc2ccccc2)Cc2ccccc2)nc2c1c(=O)[nH]c(=O)n2C,"inconclusive: 8.91 µM [inhibitor, partial curve]"
18,O=C(Nc1ccc(OC(F)(F)F)cc1)C1CC(c2ccc(F)cc2)=NO1 (stereo unspecified),"inconclusive: 39.8 µM [fluorescent, single point]"
19,Cc1ccc2[nH]c(C(=O)N/N=C/c3ccccc3O)c(C)c2c1,"inconclusive: 3.16 µM [quencher, side channel, partial curve]"

row,Structure (SMILES),Potency
1,Cc1cc(CN(C)Cc2c(C(=O)N3CCCCCCC3)nc3ccc(Cl)cn23)n[nH]1,"inconclusive: 7.94 µM [fluorescent, side channel, full curve, poor fit]"
2,COc1ccc(C2CC(c3cccs3)=NN2C(=O)CCl)cc1OC (stereo unspecified),"inconclusive: 15.8 µM [fluorescent, side channel, partial curve]"
3,COc1ccc(N=Cc2cc3c(cc2O)OC(N)=C(C#N)C3c2ccccc2)cc1 (stereo unspecified),"inconclusive: 20 µM [quencher, side channel, single point]"
4,CN=c1scc(C)n1/N=C/c1ccc(O)c(O)c1O,"inconclusive: 28.2 µM [quencher, side channel, single point]"
5,COc1cc(/C=N/Nc2nc3ccccc3[nH]2)cc(Br)c1OCC(=O)N(C)C,"inconclusive: 25.1 µM [quencher, side channel, single point]"
6,COc1cc(Br)cc(/C=N/N(CCO)C2=NS(=O)(=O)c3ccccc32)c1OC,"inconclusive: 44.7 µM [fluorescent, side channel, partial curve]"
7,c1ccc(Cn2c(CN3CCCC3)nc3ccccc32)cc1,"inconclusive: 39.8 µM [inhibitor, single point]"
8,Cc1ccc(C)c(NC(=O)CSc2ccc(-c3cccs3)nn2)c1,"inconclusive: 35.5 µM [fluorescent, side channel, single point]"
9,COc1ccc(Nc2nc(-c3ccncc3)nc3ccccc23)cc1,"inconclusive: 39.8 µM [inhibitor, single point]"
10,O=C(NCCOc1ccccc1Cl)C(=O)NCCOc1ccccc1Cl,"inconclusive: 17.8 µM [inhibitor, single point]"
11,CCOc1cc(/C=N/Nc2nc(Nc3ccccc3)nc(N3CCCCC3)n2)ccc1OCC(=O)O,"inconclusive: 10 µM [quencher, partial curve]"
12,S=C(Nc1ccccc1)N1CCn2c1nc1ccccc12,"inconclusive: 17.8 µM [quencher, side channel, partial curve]"
13,Brc1ccc(OCc2nnnn2-c2ccccc2)cc1,inactive
14,O/N=C/c1cn(-c2ccccc2)nc1-c1ccccc1,"inconclusive: 12.6 µM [quencher, side channel, single point]"
15,Nc1ccc(-c2nc3ccccc3o2)cc1,"inconclusive: 12.6 µM [quencher, side channel, partial curve]"
16,Cc1ccc(OCCNC(=O)Cc2ccc(F)cc2)cc1,inactive
17,O=C(CSc1nc(-c2ccc(F)cc2)nc2c1Cc1ccccc1O2)Nc1cccc(C(=O)O)c1,"inconclusive: 14.1 µM [fluorescent, side channel, partial curve]"
18,COc1ccc(C2=C/C(=C\c3ccccc3OC(C)=O)C(=O)O2)cc1,"inconclusive: 35.5 µM [fluorescent, side channel, single point]"
19,COc1ccc(O)c(N)c1,"inconclusive: 31.6 µM [quencher, side channel, partial curve]"

row,Structure (SMILES),Potency
1,COc1ccc(C)cc1NC(=O)Nc1cccc(C)c1,"inconclusive: 14.1 µM [quencher, side channel, partial curve]"
2,CC(C)(C)n1ncc2c(=O)n(CC(=O)Nc3ccc(Cl)cc3)cnc21,"inconclusive: 28.2 µM [quencher, side channel, single point]"
3,COc1ccc(/C=N\NC(=O)c2ccccc2OC)cc1COc1c(F)c(F)c(F)c(F)c1F,"inconclusive: 2.51 µM [inhibitor, partial curve]"
4,O=C1CC(N2CCN(c3ccccc3)CC2)C(=O)N1Cc1ccc(Cl)cc1 (stereo unspecified),"inconclusive: 17.8 µM [quencher, side channel, partial curve]"
5,COc1cc2[nH]c(=S)nc(NCc3ccccc3)c2cc1OC,inactive
6,CC(=O)N1CCN(S(=O)(=O)c2ccc(S(=O)(=O)NC3CC3)cc2)CC1,"inconclusive: 2.82 µM [inhibitor, partial curve]"
7,CC1CCCN(Cc2c(O)ccc3c(=O)c(-c4ccc(Cl)cc4)coc23)C1 (stereo unspecified),"inconclusive: 44.7 µM [inhibitor, single point]"
8,O=C(Nc1ccc(Cn2cccn2)cc1)c1ccc(COc2ccccc2Br)cc1,"inconclusive: 39.8 µM [quencher, side channel, single point]"
9,COc1ccccc1CCn1c(=O)c(-c2ccc(Cl)cc2)nc2cncnc21,"inconclusive: 28.2 µM [quencher, side channel, single point]"
10,Cc1nc2c(C(=O)NCc3cccs3)cnn2c(C)c1Cc1ccccc1,"inconclusive: 3.16 µM [fluorescent, side channel, full curve]"
11,COc1ccc(Nc2nc(-c3ccccc3)nc3ccccc23)c(OC)c1,"inconclusive: 4.47 µM [quencher, side channel, partial curve]"
12,CCOC(=O)N1CCC(N2Cc3cccc(C(=O)NCc4ccc(OC)cc4)c3C2=O)CC1,"inconclusive: 8.91 µM [fluorescent, side channel, full curve, poor fit]"
13,O=C(N/N=C/c1cn(Cc2cccc(F)c2)c2ccccc12)c1cc(O)cc(O)c1,"inconclusive: 11.2 µM [quencher, side channel, partial curve]"
14,O=S(=O)(c1ccc(OC(F)(F)F)cc1)N1CCCC(c2ccccc2)C1 (stereo unspecified),"inconclusive: 25.1 µM [fluorescent, side channel, single point]"
15,Cc1ccc2c(CN(C)Cc3cccc(F)c3)cc(=O)oc2c1C,"inconclusive: 12.6 µM [fluorescent, side channel, partial curve]"
16,Oc1cccc(C2c3[nH]c4ccccc4c3CCN2Cc2cnn(-c3ccccc3)c2)c1 (stereo unspecified),"inconclusive: 20 µM [quencher, side channel, partial curve]"
17,COc1ccc(C(=O)Nc2nnc(S(=O)(=O)Cc3ccccc3)s2)cc1,"inconclusive: 31.6 µM [fluorescent, side channel, single point]"
18,COc1ccc(Cc2nnc(NC(=O)Cc3cccs3)s2)cc1OC,"inconclusive: 28.2 µM [quencher, side channel, single point]"
